# Assay results: article PMC4336329 (PLoS ONE, 2015)
# The whole screen tested about 310,000 compounds, of which about 14,000 (4.5%) showed an effect of 50% or more. Effects have a minus sign here. This is one part of the list.
# Molecular target: human ether-à-go-go-related gene (hERG) potassium channel (human, UniProt Q12809)
# Experiment: primary screen, population patch clamp on CHO cells stably expressing hERG
# 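Note: peak tail current of the secondary pulse compared with the same well before compound.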
# Chain of human ether-à-go-go-related gene (hERG) potassium channel (Q12809 whole entry, looked up): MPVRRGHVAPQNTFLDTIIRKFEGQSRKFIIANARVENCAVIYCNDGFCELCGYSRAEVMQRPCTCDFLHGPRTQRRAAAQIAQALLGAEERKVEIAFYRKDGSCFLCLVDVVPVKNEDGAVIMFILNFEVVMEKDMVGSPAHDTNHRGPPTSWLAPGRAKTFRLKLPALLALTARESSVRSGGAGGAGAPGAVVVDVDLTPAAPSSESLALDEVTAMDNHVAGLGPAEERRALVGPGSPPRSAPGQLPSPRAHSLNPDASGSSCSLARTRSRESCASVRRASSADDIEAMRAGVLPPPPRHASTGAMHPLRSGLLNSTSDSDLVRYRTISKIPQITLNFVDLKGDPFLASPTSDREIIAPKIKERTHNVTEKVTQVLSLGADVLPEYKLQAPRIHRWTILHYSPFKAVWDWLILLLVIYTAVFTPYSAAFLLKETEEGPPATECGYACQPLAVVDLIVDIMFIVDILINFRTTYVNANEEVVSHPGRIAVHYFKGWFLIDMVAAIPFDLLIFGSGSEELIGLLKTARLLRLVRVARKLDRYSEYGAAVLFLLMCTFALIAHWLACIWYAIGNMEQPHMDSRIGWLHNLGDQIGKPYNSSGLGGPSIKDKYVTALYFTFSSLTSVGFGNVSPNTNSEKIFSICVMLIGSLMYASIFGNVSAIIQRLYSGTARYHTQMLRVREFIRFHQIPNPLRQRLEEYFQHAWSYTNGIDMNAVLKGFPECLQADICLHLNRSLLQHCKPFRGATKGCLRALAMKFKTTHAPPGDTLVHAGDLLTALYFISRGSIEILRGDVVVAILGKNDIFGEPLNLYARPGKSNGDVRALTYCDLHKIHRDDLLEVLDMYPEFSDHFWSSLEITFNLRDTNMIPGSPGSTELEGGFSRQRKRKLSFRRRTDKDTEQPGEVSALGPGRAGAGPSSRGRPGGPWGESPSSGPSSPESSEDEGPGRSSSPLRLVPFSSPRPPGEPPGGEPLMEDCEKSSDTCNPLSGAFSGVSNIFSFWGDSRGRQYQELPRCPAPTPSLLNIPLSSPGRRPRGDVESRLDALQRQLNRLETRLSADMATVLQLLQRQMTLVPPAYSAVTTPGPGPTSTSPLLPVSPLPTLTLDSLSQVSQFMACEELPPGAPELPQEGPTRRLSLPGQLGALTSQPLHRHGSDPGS
row,SMILES,"hERG current change (%, negative = inhibition) at 10uM"
1,Cc1cc(Br)ccc1NC(=O)CN(C)C(=O)CN1C(=O)NC2(CCCC2)C1=O,15.2%
2,Cc1ccc(C(=O)NC(C)c2ccncc2)o1 (stereo not drawn),13.2%
3,O=C(CCCc1nc(-c2ccccc2Cl)no1)NCc1cccnc1,-2.1%
4,O=S(=O)(NC1=NCCCCC1)c1ccc2ccccc2c1,1.99%
5,COc1cccc(C(=O)Nc2ccccc2C(=O)NC2CC2)c1,0.677%
6,O=C(NCCCN1CCOCC1)c1cc(-c2ccccc2)on1,-15.1%
7,O=C(c1ccc2nc3ccc(Cl)cc3c(=O)n2c1)N1CCOCC1,-55.3%
8,O=C(Oc1ccc(Cl)c2ccccc12)N1CCCCC1,13.5%
9,COc1ccc(-n2c(/C=C/c3ccc(O)cc3)nc3ccccc3c2=O)cc1,-21.6%
10,c1ccc2sc(NN=C3CCCC3)nc2c1,17.4%
11,Cc1c(C(=O)CN2CCN(c3ccccc3)CC2)c2ccccc2n1C,-2.34%
12,COc1ccc(C(=O)C(C)Sc2nnc(C3CC3)n2C2CC2)cc1 (stereo not drawn),-6.3%
13,CN(CC(=O)NCc1cccc(F)c1)C(=O)c1ccco1,0.0537%
14,C=CCNC(=S)NNC(=O)C(CCC(C)C)CC(C)(C)O (stereo not drawn),-5.72%
15,Cc1sc2nc(CSCC(=O)Nc3ccc(OC(F)F)cc3)[nH]c(=O)c2c1C,-42.8%
16,O=C(Nc1ccccc1Cl)c1ccccc1Cc1ccccc1,13.4%
17,CC(C)c1ccc(S(=O)(=O)N2CCN(C(=O)c3ccncc3)CC2)cc1,-22.8%
18,O=C(c1ccncc1)N(Cc1ccco1)Cc1cc2ccccc2[nH]c1=O,-43.5%
19,Cc1cccc(OCCNc2cc(N3CCN(CCO)CC3)ccc2[N+](=O)[O-])c1.Cl,-20.9%

row,SMILES,"hERG current change (%, negative = inhibition) at 10uM"
1,O=C(Cn1cc([N+](=O)[O-])cn1)NCc1ccc(-n2cccn2)cc1,-19.7%
2,COCCCN(CCCN)Cc1ccco1,7.11%
3,CN(C)c1nc2n(c(=S)n1)CCS2,0.578%
4,CCn1c(SCC(=O)N/N=C/c2ccc(C)o2)nnc1-c1ccc(C(C)(C)C)cc1,-30.6%
5,Cc1cc(C)c(NC(=O)CO/N=C2\CCCc3nonc32)c(C)c1,9.13%
6,Cc1cc(C)cc(NC(=S)N2C3CCCC2CC(NC(=O)C2CC2)C3)c1 (stereo not drawn),-21.7%
7,CSc1nnnn1-c1ccc(C(=O)OCC(=O)N2CCOCC2)cc1,8.71%
8,Cc1ccc(S(=O)(=O)NCCC(=O)OCC(=O)N(C)c2ccccc2)cc1,4.35%
9,O=C(Cc1ccccc1)NC(c1ccco1)c1c(O)ccc2ccccc12 (stereo not drawn),5.51%
10,O=C(NC1CCCCC1)c1ccccc1NC(=O)C1CC1,-23.6%
11,COC(=O)c1cc(OC)c(OC)cc1NC(=O)c1cc(-c2ccccc2)nc2ccccc12.Cl,-9.64%
12,C=C(C)Cc1c(C)c(C#N)c2nc3ccccc3n2c1NCCCN(C)C,-34.2%
13,COc1ccc(/C=N/S(=O)(=O)c2ccc(C)cc2)cc1,25.9%
14,O=[N+]([O-])c1ccc(O)c(/C=N/Nc2ccccn2)c1,12%
15,NC(=S)NNC(=O)COc1ccccc1O,7.21%
16,CCc1cccc(NC(=O)CN(c2ccc(C)cc2)S(=O)(=O)c2c(C)noc2C)c1,8.14%
17,Cc1cc(-c2ccccc2)cc(-c2ccccc2)[n+]1C.[Cl-],-13.6%
18,CN(CC(O)COc1ccc(OCC(O)CN(C)C2CCCCC2)cc1)C1CCCCC1 (stereo not drawn),8.06%
19,CCOC(=O)c1ccc(NC(=O)Nc2cc(C)cc(C)n2)cc1,11.5%

row,SMILES,"hERG current change (%, negative = inhibition) at 10uM"
1,O=C(Cc1cccs1)N/N=C/C(Br)=C/c1ccccc1,10.1%
2,Cc1ccc(S(=O)(=O)N2CCN(S(C)(=O)=O)C2)cc1,9.11%
3,CCOC(=O)c1oc2ccccc2c1COC(=O)CNC(=O)c1cccc(C)c1,3.66%
4,COc1cc(NC(=O)CSCc2ccc(Cl)cc2Cl)c(C(=O)O)cc1OC,11.2%
5,O=C(NCc1ccccc1C(F)(F)F)C1CC(c2ccccc2C(F)(F)F)=NO1 (stereo not drawn),-9.21%
6,COc1cccc(C(C(=O)NCC2CCCO2)N(C(=O)Cn2nnc3ccccc32)c2ccc(NC(C)=O)cc2)c1 (stereo not drawn),21.9%
7,Cc1ccc(-c2c(C)nn3c(N4CCOCC4)cc(C)nc23)cc1,12%
8,CCCCCNC(=O)CC1Nc2c3ccccc3nc(=S)n2C1=O (stereo not drawn),-0.562%
9,COc1ccc(NC(=O)CN(Cc2ccco2)Cc2ccco2)cc1S(=O)(=O)N1CCCCC1,-31.4%
10,NCCCC[C@@H]1NC(=O)c2cc([N+](=O)[O-])cc(I)c2SC[C@@H](C(=O)NCC(N)=O)NC(=O)CNC1=O,10.2%
11,COC(=O)C1=C(COc2ccc(F)cc2)NC(=O)NC1c1ccc(C)cc1C (stereo not drawn),-12.1%
12,CC(C)(C)c1nc(N2CCN(C(=O)c3ccco3)CC2)c2nnn(Cc3ccccc3Cl)c2n1,11.7%
13,O=C(CSc1nc(COc2ccccc2)nc2ccccc12)NC1CCCC1,-15.5%
14,Cc1ccc(Cn2nc(C)cc2C(=O)Nc2ccccc2Cl)cc1,13.2%
15,O=C(c1cc2cc3ccc(Cl)cc3nc2o1)N1CCCCCC1,0.782%
16,OCCC1CN(Cc2nc3ccccc3s2)CCN1CCc1ccccc1 (stereo not drawn),-77.7%
17,COC(=O)N1CC(c2ccccc2)CC1=O (stereo not drawn),9.18%
18,CCOC(=O)CSc1nc2ccccc2c(=O)n1CC1CCC(C(=O)NCc2ccco2)CC1 (stereo not drawn),-18.9%
19,C[C@@H](C(=O)Nc1cccnc1)n1c(=O)[nH]c2ccccc2c1=O,12.9%
